# Reference: PubChem BioAssay AID1466 (National Center for Advancing Translational Sciences (NCATS), 2008)
# Among all 200,000 compounds or so, about 10 (0.005%) were called active. The inconclusive results got no clear call from the source; some entries with a clear call stand among them for comparison. The call rests on the fitted dose curve; in most records, active means well fitted inhibition curve with a large enough effect; inconclusive means small, poorly fitted or top-dose-only effect, or effect the other way, or another doubt; inactive means no such curve, though single readings can be large or run the other way. Potencies of inconclusive entries are doubtful fits and often do not repeat.
# Target: Lysosomal alpha-glucosidase (Homo sapiens) (UniProt P10253)
# Test: qHTS Assay for Inhibitors of Human alpha-Glucosidase as a Potential Chaperone Treatment of Pompe Disease;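 on activity change, negative = inhibition: plate controls were uninhibited enzyme wells for no effect and no-enzyme background for full effect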
# Conditions: purified human GAA, 4-MU-alpha-glucoside fluorescence; activity change, negative = inhibition: at 76.9 µM (top of the series) unless noted
# Procedure, shortened: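 Compounds are titrated up to 77 uM against 4 nM human enzyme. Substrate 4-methylumbelliferyl-alpha-D-pyranoside (400 uM) reacts 20 min at room temperature in pH 5.0 buffer; liberated 4-methylumbelliferone is read at 440 nm.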
# Potency means the concentration at half of the fitted maximal effect; tags describe the fitted curve by direction and shape.
Structure (SMILES),Potency,"activity change, negative = inhibition"
CC1(C)CC(=O)c2cc(OCC(=O)NCc3cccnc3)ccc2O1,"inconclusive: 20 µM [activator, partial curve]",–
Cc1ccc(C(=O)Nc2ccc(N3CCN(C(=O)c4ccco4)CC3)cc2)cc1,–,inconclusive: 17.2% [activator]
O=C(O)c1cc(Cl)ccc1-c1ccc(/C=C/c2cc(C(F)(F)F)[nH]c(=O)n2)o1,–,inconclusive: 5.43% [activator]
Cc1noc(C)c1CSc1nnc(-c2ccccc2)n1N,"inconclusive: 0.794 µM [inhibitor, full curve, poor fit]",–
O=C(Cn1cnc2ccccc2c1=O)Nc1nnc(SCc2ccccc2)s1,"inconclusive: 0.178 µM [activator, full curve]",–
O=C(N/N=C/c1c(F)c(F)c(F)c(F)c1F)c1ccc(Cn2cc(Br)cn2)o1,"inconclusive: 35.5 µM [inhibitor, single point]",–
COc1ccccc1-c1nnc2n1N=C(c1ccc(O)c(O)c1)CS2,inactive,–
COc1ccccc1-c1noc(CCC(=O)Nc2cccc(C(F)(F)F)c2)n1,"inconclusive: 0.178 µM [inhibitor, full curve, poor fit]",–
FC(F)(F)c1cccc(OCCN2CCN(Cc3ccccc3)CC2)c1,"inconclusive: 25.1 µM [inhibitor, partial curve, poor fit]",–
CC(=O)N1C(=O)/C(=C2\SC(=S)N(c3c(C)n(C)n(-c4ccccc4)c3=O)C2=O)c2ccccc21,"inconclusive: 39.8 µM [inhibitor, partial curve]",–
Cc1ccc(-n2nc(-c3ccc(OC(F)(F)F)cc3)cc2N)cc1C,"inconclusive: 2.24 µM [inhibitor, partial curve]",–
Cn1c(NC(=S)Nc2ccccc2)nc2ccccc21,–,inconclusive: -15.9% [inhibitor]
CC(=O)c1c(-c2ccccc2)c2cc(Cl)ccc2[nH]c1=O,–,inconclusive: 12.4% [activator]
C/C(=N\NC(=O)c1nn(C)c(C)c1Br)c1ccc(NC(=O)c2ccccc2F)cc1,"inconclusive: 50.1 µM [activator, single point]",–
Cc1cc(C)c(S(=O)(=O)ON2C(=O)c3ccccc3C2=O)cc1C,–,inconclusive: 16.9% [activator]
CCN1CCCC1CNC(=O)CCc1nnc(CCC2CCCCC2)o1 (centres undefined),–,inconclusive: 15% [activator]
Cc1c(N=Cc2nc3ccccc3[nH]2)c(=O)n(-c2ccccc2)n1C,inactive,–
COc1ccc(CCNC(=O)c2noc3c2CCCC3)cc1OC,"inconclusive: 0.158 µM [inhibitor, full curve, poor fit]",–
COc1cccc(-c2nnc(SCC(=O)Nc3cc(C)ccc3OC)n2N)c1,"inconclusive: 35.5 µM [inhibitor, single point]",–
CCCn1c(=O)c2c(C(F)(F)F)cc(-c3ccco3)nc2n(CCC)c1=O,"inconclusive: 3.98 µM [activator, full curve]",–
O=c1oc2c(CN3CCCCC3)c(O)ccc2c2c1CCCCC2,"inconclusive: 35.5 µM [activator, partial curve]",–
CN1CCN(C(=S)C(=O)Nc2ccc(Br)cc2)CC1,–,inconclusive: 8.91% [activator]

Structure (SMILES),Potency,"activity change, negative = inhibition"
CC(C)CNC(=O)CC(c1ccccc1)c1c(O)ccc2ccccc12 (centres undefined),"inconclusive: 50.1 µM [activator, single point]",–
CC(=O)[C@@H]1[C@@H](C(=O)c2ccc(C)cc2)[C@]2(C(=O)Nc3ccccc32)[C@H]2C=Cc3cc(F)ccc3N12,–,inconclusive: -8.45% [inhibitor] [at 15.4 µM]
CCCc1cc(=O)[nH]c(SCC(=O)C(C)(C)C)n1,"inconclusive: 56.2 µM [inhibitor, single point]",–
NS(=O)(=O)c1ccc(NC(=O)COC(=O)CCc2c[nH]c3ccccc23)cc1,inactive,–
Cc1c(Nc2nc3ccccc3nc2N2CCN(c3ccccc3)CC2)c(=O)n(-c2ccccc2)n1C,"inconclusive: 7.08 µM [inhibitor, single point]",–
CC(=O)Nc1c(OC(C)=O)ccc2c(C)cc(=O)oc12,"inconclusive: 35.5 µM [activator, partial curve]",–
Nc1ccc2nc(-c3ccc(Cl)cc3)[nH]c2c1,"inconclusive: 20 µM [activator, partial curve, poor fit]",–
O=C(CSc1nc2ccccc2o1)c1cc2ccccc2oc1=O,"inconclusive: 35.5 µM [activator, single point]",–
CCOc1ccc2[nH]c(=O)c(C(c3nnnn3CCOC)N3CCOCC3)cc2c1 (centres undefined),"inconclusive: 3.55 µM [activator, single point]",–
S=C(Nc1ccc(Br)cc1Cl)NC1CCN(Cc2ccccc2)CC1,inactive,–
CCn1c2ccccc2c2nc3cc(C(=O)O)ccc3nc21,"inconclusive: 39.8 µM [inhibitor, single point]",–
CC1=C(C)CC(C(=O)Nc2nc(-c3ccc(C)cc3C)c(C)s2)C(C(=O)O)C1 (centres undefined),"inconclusive: 3.55 µM [inhibitor, partial curve]",–
CCOc1cc(C(=O)N/N=C\c2cn(CC)nc2C)cc(OCC)c1OCC,"inconclusive: 31.6 µM [inhibitor, single point]",–
O=C(Oc1c(CN2CCOCC2)cc(Cl)c2cccnc12)c1ccccc1Cl,inactive,–
Cn1ccnc1SCC(=O)Nc1ccc2nc(SCC(=O)NC3CC3)sc2c1,"inconclusive: 2.51 µM [inhibitor, partial curve]",–
CCCCN(C)c1nc(-c2ccco2)c2c(c1C#N)CC(C)(C)OC2,"inconclusive: 0.891 µM [inhibitor, single point]",–
Oc1ccccc1Nc1nc(NCc2ccccc2)c2ccccc2n1,inactive,–
COC(=O)c1ccc(CN(c2ccc(C)cc2)S(=O)(=O)c2ccc3c(c2)OCCO3)o1,"inconclusive: 50.1 µM [inhibitor, single point]",–
COCc1cc(=O)[nH]c(Nc2nc3ccccc3o2)n1,"inconclusive: 2.24 µM [activator, partial curve]",–
O=C(NCCCN1CCN(c2ccc(F)cc2)CC1)c1cccc(N2CCCC2=O)c1,"inconclusive: 22.4 µM [inhibitor, partial curve, poor fit]",–
COCc1cc(C)nc2sc(C(=O)Nc3nccs3)c(N)c12,"inconclusive: 50.1 µM [inhibitor, single point]",–
O=C(Nc1ccc(N2CCOCC2)c(Cl)c1)c1ccc([N+](=O)[O-])o1,"inconclusive: 31.6 µM [inhibitor, single point]",–

Structure (SMILES),Potency,"activity change, negative = inhibition"
CC(Nc1ccccc1)c1ccncc1 (centres undefined),"inconclusive: 0.158 µM [activator, full curve, poor fit]",–
CCC(c1nnc(SCc2nc3ccccc3s2)n1Cc1ccccc1)N(C)C (centres undefined),"inconclusive: 11.2 µM [inhibitor, single point]",–
COc1ccccc1CNc1ccc(N2CCCCC2)cc1,"inconclusive: 28.2 µM [inhibitor, single point]",–
CC1C2=C(CC(C)(C)CC2=O)NC2=C1C(=O)CC(C)(C)C2,"inconclusive: 35.5 µM [activator, partial curve]",–
COc1ccc(CC(CC(=O)O)C(=O)NCc2ccccc2)cc1 (centres undefined),–,inconclusive: 15.6% [activator]
O=S(=O)(NCCc1ccccc1F)c1cccc(S(=O)(=O)N2CCOCC2)c1,"inconclusive: 2.82 µM [inhibitor, full curve, poor fit]",–
COc1cccc(NC(=O)C2CCN(Cc3cnn(-c4ccccc4)c3-n3cccc3)CC2)c1,"inconclusive: 31.6 µM [inhibitor, single point]",–
N#Cc1nc(-c2cccs2)oc1N1CCN(Cc2ccccc2)CC1,"inconclusive: 56.2 µM [activator, single point]",–
Cc1ccc(-c2cn3cccnc3n2)cc1NC(=O)c1c(-c2ccccc2Cl)noc1C,"inconclusive: 28.2 µM [activator, partial curve]",–
Oc1ccccc1-c1nc(NCc2ccco2)c2ccccc2n1,inactive,–
N#CC(C#N)=C1C=CC=CN1/C(=C\c1ccco1)C(=O)c1ccc(Cl)cc1,"inconclusive: 11.2 µM [inhibitor, partial curve]",–
COc1ccc2sc(N3C(=O)CC(Cc4cccc(C)c4)C3=O)nc2c1 (centres undefined),"inconclusive: 31.6 µM [inhibitor, single point]",–
Cc1ccc(-c2csc3nc[nH]c(=O)c23)cc1,"inconclusive: 12.6 µM [activator, single point]",–
Cc1ccc(S(=O)(=O)N2CCC(C(=O)OCC(=O)N3CC(=O)Nc4ccccc43)CC2)cc1,"inconclusive: 28.2 µM [inhibitor, partial curve]",–
O=S(=O)(NC1CCCC1)c1cccc(S(=O)(=O)N2CCC(n3nnc4ccccc43)CC2)c1,"inconclusive: 17.8 µM [inhibitor, partial curve]",–
Cc1ccc(S(=O)(=O)N2CCN(C(=O)COc3ccc(-c4nnco4)cc3)CC2)cc1,"inconclusive: 14.1 µM [inhibitor, partial curve]",–
CCCCc1cc(=O)oc2cc(O)cc(O)c12,"inconclusive: 35.5 µM [activator, partial curve]",–
O=C(Nc1ccccc1)ON=C1CCCC1,"inconclusive: 56.2 µM [inhibitor, single point]",–
COCC(=O)Nc1ccc(-c2cn3cccnc3n2)cc1,"inconclusive: 35.5 µM [activator, partial curve]",–
Cc1cc(C)c2nc(SCC(=O)NCCC3=CCCCC3)cc(C)c2c1,"inconclusive: 0.178 µM [inhibitor, full curve, poor fit]",–
